Experimental data as given in the supplement of paper PMC11741623.
The list shows a part of the results. Interaction screen of human proteins with wild-type SARS-CoV-2 proteins by split-DHFR complementation in yeast, 1 µg/mL methotrexate. Value = fitness of the pair (three or more lineages) minus that of the viral protein without a human partner, on a scale set by negative (0) and fused positive (1) controls, mean of up to three cultures; higher = more likely to interact. Active = false discovery rate below 0.05 (one-sided t-test) in at least one culture. Nearly all pairs are not hits, and differences among them are mostly noise (correlation between cultures about 0.3); most hits were seen in one culture only. Human sequences are the Swiss-Prot entries looked up by gene name; the clone may be another isoform. NSP2 values were corrected by the authors for a growth advantage. Listed are human proteins with a hit and a random twelfth of the others.

Key:
Test in all cases: yeast fitness gain over the viral ORF with no human partner (scaled fitness); higher = more likely to interact
SARS-CoV-2 M = molecular target: SARS-CoV-2 M
Experimental: (§1)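 Split mouse DHFR complementation in pooled diploid yeast: human ORFeome clones carry one fragment and viral ORFs the other; barcoded lineages compete in 1 µg/mL methotrexate and fitness is read by barcode sequencing in up to three cultures.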

SARS-CoV-2 N = molecular target: SARS-CoV-2 N
Experimental: as §1

SARS-CoV-2 NSP10 = molecular target: SARS-CoV-2 NSP10
Experimental: as §1

SARS-CoV-2 NSP13 = molecular target: SARS-CoV-2 NSP13
Experimental: as §1

SARS-CoV-2 NSP2 = molecular target: SARS-CoV-2 NSP2
Experimental: as §1

SARS-CoV-2 NSP5 = molecular target: SARS-CoV-2 NSP5
Experimental: as §1

SARS-CoV-2 ORF10 = molecular target: SARS-CoV-2 ORF10
Experimental: as §1

SARS-CoV-2 ORF3B = molecular target: SARS-CoV-2 ORF3B
Experimental: as §1

SARS-CoV-2 ORF6 = molecular target: SARS-CoV-2 ORF6
Experimental: as §1

SARS-CoV-2 ORF7B = molecular target: SARS-CoV-2 ORF7B
Experimental: as §1

SARS-CoV-2 ORF9B = molecular target: SARS-CoV-2 ORF9B
Experimental: as §1

SARS-CoV-2 S = molecular target: SARS-CoV-2 S
Experimental: as §1

SARS-CoV-2 NSP12 = molecular target: SARS-CoV-2 NSP12
Experimental: as §1

SARS-CoV-2 NSP15 = molecular target: SARS-CoV-2 NSP15
Experimental: as §1

SARS-CoV-2 NSP16 = molecular target: SARS-CoV-2 NSP16
Experimental: as §1

SARS-CoV-2 NSP6 = molecular target: SARS-CoV-2 NSP6
Experimental: as §1

SARS-CoV-2 NSP7 = molecular target: SARS-CoV-2 NSP7
Experimental: as §1

SARS-CoV-2 NSP8 = molecular target: SARS-CoV-2 NSP8
Experimental: as §1

SARS-CoV-2 NSP9 = molecular target: SARS-CoV-2 NSP9
Experimental: as §1

SARS-CoV-2 ORF3A = molecular target: SARS-CoV-2 ORF3A
Experimental: as §1

SARS-CoV-2 ORF7A = molecular target: SARS-CoV-2 ORF7A
Experimental: as §1

SARS-CoV-2 ORF8 = molecular target: SARS-CoV-2 ORF8
Experimental: as §1

[1] = molecular target: SARS-CoV-2 ORF9Bwu (the 73-codon ORF)
Experimental: as §1

SARS-CoV-2 NSP1 = molecular target: SARS-CoV-2 NSP1
Experimental: as §1

SARS-CoV-2 NSP14 = molecular target: SARS-CoV-2 NSP14
Experimental: as §1

SARS-CoV-2 NSP4 = molecular target: SARS-CoV-2 NSP4
Experimental: as §1

Measured: yeast fitness gain

B1: FUCA1, P04066 (protein)
chain: MRAPGMRSRPAGPALLLLLLFLGAAESVRRAQPPRRYTPDWPSLDSRPLPAWFDEAKFGVFIHWGVFSVPAWGSEWFWWHWQGEGRPQYQRFMRDNYPPGFSYADFGPQFTARFFHPEEWADLFQAAGAKYVVLTTKHHEGFTNWPSPVSWNWNSKDVGPHRDLVGELGTALRKRNIRYGLYHSLLEWFHPLYLLDKKNGFKTQHFVSAKTMPELYDLVNSYKPDLIWSDGEWECPDTYWNSTNFLSWLYNDSPVKDEVVVNDRWGQNCSCHHGGYYNCEDKFKPQSLPDHKWEMCTSIDKFSWGYRRDMALSDVTEESEIISELVQTVSLGGNYLLNIGPTKDGLIVPIFQERLLAVGKWLSINGEAIYASKPWRVQWEKNTTSVWYTSKGSAVYAIFLHWPENGVLNLESPITTSTTKITMLGIQGDLKWSTDPDKGLFISLPQLPPSAVPAEFAWTIKLTGVK
inactive: SARS-CoV-2 M -0.242 | SARS-CoV-2 N 0.0135 | SARS-CoV-2 NSP10 = -0.025 | SARS-CoV-2 NSP13 = -0.212 | SARS-CoV-2 NSP2 = 0.0244 | SARS-CoV-2 NSP5 = -0.0501 | SARS-CoV-2 ORF10 = -0.0183 | SARS-CoV-2 ORF3B -0.153 | SARS-CoV-2 ORF6 = -0.0912 | SARS-CoV-2 ORF7B -0.0107 | SARS-CoV-2 ORF9B -0.138 | SARS-CoV-2 S -0.107

B2: GBP3, Q9H0R5 (protein)
chain: MAPEIHMTGPMCLIENTNGELVANPEALKILSAITQPVVVVAIVGLYRTGKSYLMNKLAGKNKGFSLGSTVKSHTKGIWMWCVPHPKKPEHTLVLLDTEGLGDVKKGDNQNDSWIFTLAVLLSSTLVYNSMGTINQQAMDQLYYVTELTHRIRSKSSPDENENEDSADFVSFFPDFVWTLRDFSLDLEADGQPLTPDEYLEYSLKLTQGTSQKDKNFNLPRLCIRKFFPKKKCFVFDLPIHRRKLAQLEKLQDEELDPEFVQQVADFCSYIFSNSKTKTLSGGIKVNGPRLESLVLTYINAISRGDLPCMENAVLALAQIENSAAVQKAIAHYDQQMGQKVQLPAETLQELLDLHRVSEREATEVYMKNSFKDVDHLFQKKLAAQLDKKRDDFCKQNQEASSDRCSALLQVIFSPLEEEVKAGIYSKPGGYCLFIQKLQDLEKKYYEEPRKGIQAEEILQTYLKSKESVTDAILQTDQILTEKEKEIEVECVKAESAQASAKMVEEMQIKYQQMMEEKEKSYQEHVKQLTEKMERERAQLLEEQEKTLTSKLQEQARVLKERCQGESTQLQNEIQKLQKTLKKKTKRYMSHKLKI
inactive: SARS-CoV-2 M -0.0431 | SARS-CoV-2 NSP10 = -0.163 | SARS-CoV-2 NSP12 = -0.000472 | SARS-CoV-2 NSP13 = -0.0942 | SARS-CoV-2 NSP15 = 0.00854 | SARS-CoV-2 NSP16 = 0.0326 | SARS-CoV-2 NSP2 = -0.204 | SARS-CoV-2 NSP5 = 0.0136 | SARS-CoV-2 NSP6 = -0.101 | SARS-CoV-2 NSP7 = 0.00893 | SARS-CoV-2 NSP8 = -0.185 | SARS-CoV-2 NSP9 = -0.241 | SARS-CoV-2 ORF10 = -0.074 | SARS-CoV-2 ORF3A -0.0664 | SARS-CoV-2 ORF3B 0.0529 | SARS-CoV-2 ORF6 = -0.0621 | SARS-CoV-2 ORF7A -0.0835 | SARS-CoV-2 ORF7B 0.127 | SARS-CoV-2 ORF8 = 0.0298 | SARS-CoV-2 ORF9B -0.0154 | [1] 0.0323 | SARS-CoV-2 S 0.0469

B3: ARFIP2, P53365 (protein)
chain: MTDGILGKAATMEIPIHGNGEARQLPEDDGLEQDLQQVMVSGPNLNETSIVSGGYGGSGDGLIPTGSGRHPSHSTTPSGPGDEVARGIAGEKFDIVKKWGINTYKCTKQLLSERFGRGSRTVDLELELQIELLRETKRKYESVLQLGRALTAHLYSLLQTQHALGDAFADLSQKSPELQEEFGYNAETQKLLCKNGETLLGAVNFFVSSINTLVTKTMEDTLMTVKQYEAARLEYDAYRTDLEELSLGPRDAGTRGRLESAQATFQAHRDKYEKLRGDVAIKLKFLEENKIKVMHKQLLLFHNAVSAYFAGNQKQLEQTLQQFNIKLRPPGAEKPSWLEEQ
inactive: SARS-CoV-2 M -0.28 | SARS-CoV-2 NSP1 = -0.0858 | SARS-CoV-2 NSP10 = -0.105 | SARS-CoV-2 NSP12 = -0.035 | SARS-CoV-2 NSP13 = -0.0325 | SARS-CoV-2 NSP2 = -0.0843 | SARS-CoV-2 NSP5 = 0.0725 | SARS-CoV-2 NSP6 = 0.128 | SARS-CoV-2 NSP7 = -0.0121 | SARS-CoV-2 ORF10 = 0.0143 | SARS-CoV-2 ORF3B -0.0264 | SARS-CoV-2 ORF6 = 0.0384 | SARS-CoV-2 ORF7A -0.07 | SARS-CoV-2 ORF7B 0.0187 | SARS-CoV-2 ORF8 = -0.0883 | SARS-CoV-2 ORF9B 0.0455 | [1] -0.327 | SARS-CoV-2 S -0.0769

B4: B3GNTL1, Q67FW5 (protein)
chain: MQAHVSIILPVHNAEPWLDECLRSVLQQDFEGTMELSVFNDASKDKSGAIIEKWRVKLEDSGVHVIIGGHDSPSPRGVGYAKNQAVAQSSGSYLCFLDSDDVMMPQRVRLQHEAAVQHPSSIIGCRVRRDPPNSTERYTRWINQLTPEQLLTQVFTSNGPTVIMPTWFCSRAWFSHVGPFNEGGQGVPEDLLFFYEHLRKGGGVIRVDQSLLLYRHHPQAATHCVLETTIWTHRVRFLEEQALPRWAAFTIWNAGKQGRRLYRSLTAGSQRKVVAFCDVDENKIRKGFYCHEDSQERPKPRIPILHFRAARPPFVICVKLDLTGGAFEDNLRSLHLQEGQDFLHFS
inactive: SARS-CoV-2 M -0.0411 | SARS-CoV-2 N -0.073 | SARS-CoV-2 NSP1 = 0.0568 | SARS-CoV-2 NSP10 = -0.0414 | SARS-CoV-2 NSP12 = -0.0122 | SARS-CoV-2 NSP13 = -0.0068 | SARS-CoV-2 NSP14 = -0.0388 | SARS-CoV-2 NSP15 = 0.071 | SARS-CoV-2 NSP16 = -0.0542 | SARS-CoV-2 NSP2 = -0.149 | SARS-CoV-2 NSP4 = 0.0334 | SARS-CoV-2 NSP5 = -0.0496 | SARS-CoV-2 NSP6 = -0.0436 | SARS-CoV-2 NSP7 = -0.0147 | SARS-CoV-2 NSP8 = -0.0778 | SARS-CoV-2 NSP9 = 0.158 | SARS-CoV-2 ORF10 = 0.025 | SARS-CoV-2 ORF3B 0.0454 | SARS-CoV-2 ORF6 = -0.0323 | SARS-CoV-2 ORF7A -0.0676 | SARS-CoV-2 ORF7B 0.0136 | SARS-CoV-2 ORF8 = -0.111 | SARS-CoV-2 ORF9B 0.0735 | [1] 0.0586 | SARS-CoV-2 S -0.117

B5: C15orf63, Q9NX55 (protein)
chain: MATEGDVELELETETSGPERPPEKPRKHDSGAADLERVTDYAEEKEIQSSNLETAMSVIGDRRSREQKAKQEREKELAKVTIKKEDLELIMTEMEISRAAAERSLREHMGNVVEALIALTN
inactive: SARS-CoV-2 M -0.146 | SARS-CoV-2 NSP1 = -0.0645 | SARS-CoV-2 NSP10 = 0.0456 | SARS-CoV-2 NSP12 = -0.0345 | SARS-CoV-2 NSP13 = 0.0472 | SARS-CoV-2 NSP14 = 0.00581 | SARS-CoV-2 NSP15 = 0.0962 | SARS-CoV-2 NSP16 = -0.0453 | SARS-CoV-2 NSP2 = 0.0375 | SARS-CoV-2 NSP4 = 0.101 | SARS-CoV-2 NSP5 = -0.063 | SARS-CoV-2 NSP6 = 0.0168 | SARS-CoV-2 NSP7 = 0.0374 | SARS-CoV-2 NSP8 = -0.0965 | SARS-CoV-2 NSP9 = -0.136 | SARS-CoV-2 ORF10 = -0.0898 | SARS-CoV-2 ORF3B 0.0637 | SARS-CoV-2 ORF6 = 0.0278 | SARS-CoV-2 ORF7A -0.0632 | SARS-CoV-2 ORF7B -0.0902 | SARS-CoV-2 ORF8 = 0.039 | SARS-CoV-2 ORF9B -0.00585 | [1] 0.0623 | SARS-CoV-2 S 0.00366
